From PubChem BioAssay AID493014 (National Center for Advancing Translational Sciences (NCATS), 2011) come the findings set out here.

The whole screen tested about 340,000 compounds, of which about 170 (0.05%) were called active. Another 26% or so got no clear call; they are omitted. The call rests on the fitted dose curve; in most records, active means well fitted inhibition curve with a large enough effect in the signal ratio, with a control signal flat (not every such curve was filed as active); inconclusive means small, poorly fitted or top-dose-only effect, or effect the other way, or a change in a side signal; inactive means flat fitted curve, though single readings scatter; the % refers to the signal ratio. This is a selection; strong and weak results do not stand in their true shares.
Potency means the concentration at half of the fitted maximal effect.

A short description of the experiment: qHTS Assay to Find Inhibitors of Chronic Active B-Cell Receptor Signaling. Particulars: ABC-DLBCL IkBa-CBG/CBR reporter, luminescence ratio (green luciferase fused to IkBa over red control in TMD8 lymphoma cells), 4 h; series mostly up to 46.1 µM; activity change, negative = inhibition: at the top concentration. The text has this:
NIH Molecular Libraries Probe Production Network [MLPCN] NIH Chemical Genomics Center [NCGC] MLPCN Grant: 1 R03 DA031086-01A1 PI Name: Dr. R. Eric Davis NCGC Assay Overview: Diffuse large B-cell lymphoma (DLBCL) is the most common category of non-Hodgkin lymphoma, with ~20,000 new cases per year in the United States. DLBCL should be regarded as a collection of different neoplasms. Microarray gene expression analysis has defined two principal types of DLBCL, named for their similarity to normal B cell stages or activation states: a germinal center B-cell (GCB) type, and an activated B-cell (ABC) type. In ABC-DLBCL, a constitutive high-level activity of the NF-kappaB family of transcription factors has been observed (1) and NF-kappaB target genes are more highly expressed in ABC primary tumors than in GCB tumors. Functional studies have shown a constitutive high-level activity of the IkappaB (inhibitor of kappa-B) kinase (IKK) complex. […] Further analysis of DLBCL primary tumors for NF-kappaB target gene expression imply that although CARD11 is required for constitutive IKK activity in all ABC-DLBCL lines, mutations in CARD11 may be the root cause of IKK activation only in lines or tumors with such mutations. In other words, CARD11 mutations may explain NF-kappaB activation in only 10% of ABC-DLBCL cases. […] This process has been termed 'chronic active BCR signaling' (CABS). The goal of this screen is to find small-molecule inhibitors of the CABS pathway found in ABC-DLBCL lines using a cell-based assay that measures IkappaBalpa stability, which has already been extensively validated in the OCI-Ly3 line (PubChem AID:445; REF: 4). […] The assay uses green (CBG68) and red (CBR) emitting beetle luciferases [Chroma-GloTM developed by Promega Corp.] where the green luciferase is fused to IkappaBalpha and the red luciferase is present in its native state. Both luciferase genes are stably present in the TMD8 human ABC DLBCL cell line, but their expression is under the control of tetracycline-inducible promoters. Following the addition of doxycycline to induce expression of the luciferases, the green luminescence in control cultures rises only slowly because the CBG fusion partner IkappaBalpha is targeted by IKK activity for rapid degradation. In contrast, green luminescence rises rapidly in the presence of proteasome inhibitors or IKK inhibitors. The rise in red luminescence of CBR is not affected by proteasome or IKK inhibitors, and serves as normalization for cell number and nonspecific effects. Compounds were screened as a concentration-titration series that ranged from 46 uM to 3 nM.
NCGC Assay Protocol Summary: Cells were seeded in 1536-well plates at 5000 cells/4uL in IMDM medium containing 0.5% FBS, w/o phenol red, 1% penicillin/streptomycin. Then, 23 nL of compounds or DMSO were delivered to each well using a pin tool. One uL 20ng/ml doxycycline was then dispensed into white solid 1536-well plates and the plates were incubated at 37C/5% C02 in a cell incubator for 4 hrs. Then 4 uL luminescent substrate mix (in-house prepared: 150 mM Tris-Cl, pH 7.6, 3 mM MgCl2, 1% Triton X-100, 5 mM DTT, 0.2 mM CoA, 0.15 mM ATP, 5 mM D-luciferin, final concentrations) was added to each well. The plate was incubated at r.t. for 10-15 min. The plates were measured on a ViewLux plate reader for green luminescence (540/20 nm filter) and red luminescence (618/8 nm filter). The green and red luminescent signals were corrected for red and green luminescence filter overlap using previously determined filter calibration constants (determined using the procedure outlined in the Promega Technical Manual; REF 4). The %Activity was determined from the ratio of corrected green/red luminescent values. MG132 were used as control. […] Red luminescent %Activity was normalized to the difference between red luminesence in basal cells (0%Activity) and zero luminescence (-100% Activity). […]
As for `CC(C)=CCN1CC[C@@]2(C)c3cc(O)ccc3C[C@@H]1C2C` (stereo not given in full), the “activity change, negative = inhibition” value is inactive: 0.0042%.
As to `CC(=O)CC(c1ccccc1)c1c(O)c2ccccc2oc1=O` (stereo not given), the “activity change, negative = inhibition” value was inactive: 10.2%.
For the compound `O=C1OC(=O)C2C3CCC(O3)C12` (stereo not given), the “activity change, negative = inhibition” value is inactive: 12.4%.
Take `C=C(C)[C@@H]1CC=C(CN2CCN(Cc3ccccc3)CC2)CC1`: the “activity change, negative = inhibition” value is inactive: -0.17%.
As for `COc1cc(/C=C/[N+](=O)[O-])ccc1O`, the Potency is active: 20.6 µM.
For `C[C@]12CC[C@@H](O)C[C@@H]1CC[C@@H]1[C@@H]2CC[C@]2(C)[C@@H](O)CC[C@@H]12`, the “activity change, negative = inhibition” value is inactive: -12.2%.
Still for that read-out and setting: next, `O=C1/C(=C\c2ccc([N+](=O)[O-])cc2)N2CCC1CC2`: inactive: -14.9%.
For `CCOC(=O)C1=C(N)OC2=C(C(=O)CCC2)C12C(=O)N(CC(N)=O)c1ccccc12` (stereo not given), the “activity change, negative = inhibition” value is inactive: -4.44%.
For the compound `COC1=CC2[C@@H]3Cc4ccc(OC)c(O)c4[C@]2(CCN3C)CC1=O` (stereo not given in full), the “activity change, negative = inhibition” value was inactive: -0.484%.
The same measure, in the same setting: next, `C[C@]12CCC3C(CC[C@H]4C[C@@H](O)CC[C@]34C)C1CC[C@@H]2O` (stereo not given in full): inactive: -2.39%.
On to `C[N+]1(C)[C@@H]2CC[C@H]1CC(OC(=O)[C@@H](CO)c1ccccc1)C2` (stereo not given in full), for which the “activity change, negative = inhibition” value was inactive: 6.65%.
The same measure, in the same setting: next, `CC(C)[N+]1(C)[C@@H]2CC[C@H]1CC(OC(=O)C(CO)c1ccccc1)C2` (stereo not given in full): inactive: -2.97%; `Cc1ccc(C(=O)N/C(=C\c2ccc(-c3cccc([N+](=O)[O-])c3)o2)C(=O)NCCCN(C)C)cc1`: inactive: -1.51%.
Same read-out and setting: in the case of `Oc1ccc2c3c1O[C@H]1c4[nH]c5ccccc5c4C[C@@]4(O)C(C2)N(CC2CC2)CC[C@]314` it was inactive: 4.84%; in that of `CC(=O)O[C@]1(c2ccccc2)CCN(C)[C@H]2CCCC[C@@H]21`, inactive: -8.63%; in that of `c1cc2c(cc1C1OCC3C(c4ccc5c(c4)OCO5)OCC13)OCO2` (stereo not given), inactive: -3.34%.
On the same count and under the same terms, in the case of `Cc1cc(/C=C2\C(=O)NC(=O)N(c3ccc(Br)cc3)C2=O)c(C)n1C` it was inactive: 1.47%; in that of `O=C(O)[C@H]1C[C@@H]1[C@H](NP(=O)(c1ccccc1)c1ccccc1)c1ccccc1`, inactive: -2.27%; in that of `C[C@]12CCC(=O)C=C1CCC1C2CC[C@@]2(C)C1CC[C@@H]2O` (stereo not given in full), inactive: -9.68%.
With `[2H]c1c([2H])c([2H])c(C(=O)c2sc(N3CCCCCC3)nc2-c2ccccc2)c([2H])c1[2H]`, the “activity change, negative = inhibition” value was inactive: 12.5%.
As for `O=[N+]([O-])/C(C(Cl)=C(Cl)Cl)=C(\Sc1ccccc1)N1CCCCC1`, the “activity change, negative = inhibition” value was inactive: 7.73%.
On the same count and under the same terms, next, `Cc1c(OCC(F)(F)F)ccnc1CS(=O)c1nc2ccccc2[nH]1` (stereo not given): inactive: 2.59%.
On the same count and under the same terms, in the case of `CC1=CC(=O)C2=C(C)C[C@H](O)[C@@H]3[C@H](OC(=O)[C@H]3C)[C@@H]12` it was inactive: -9.98%; in that of `C=CCN1C(=O)/C(=C/c2ccc(N3CCOCC3)o2)C(=O)NC1=S`, inactive: -4.58%.
The same measure, in the same setting: next, `COC(=O)C1=COC(C)C2CN3CCC4(C(=O)Nc5ccccc54)C3CC12` (stereo not given): inactive: 3.88%; `COc1ccc(NC(=O)CCS(=O)(=O)c2ccc3c(c2)oc(=O)n3C)cc1OC`: inactive: 0.972%; `CCC(COC(=O)c1cc(OC)c(OC)c(OC)c1)(c1ccccc1)N(C)C` (stereo not given): inactive: 0.634%.
With `Oc1ccc2c3c1OC1c4[nH]c5ccccc5c4C[C@@]4(O)C(C2)N(CC2CC2)CC[C@]314` (stereo not given in full), the “activity change, negative = inhibition” value is inactive: -0.721%.
For the compound `O=c1ccc2cc(OC3O[C@H](CO)[C@@H](O)[C@H](O)[C@H]3O)c(O)cc2o1` (stereo not given in full), the “activity change, negative = inhibition” value is inactive: 0.251%.
Still for that read-out and setting: next, `C[C@@H]1O[C@@H]1P(=O)(O)O`: inactive: 2.7%.
The same measure, in the same setting: in the case of `Cc1ccccc1-n1c(O)c(/C=N/c2nccs2)c(=O)[nH]c1=O` it was inactive: 0.245%; in that of `COC(=O)C1=CO[C@@H](C)[C@@H]2CN3CC[C@]4(C(=O)Nc5ccccc54)[C@@H]3C[C@H]12`, inactive: 1.15%.
For the compound `C[N+]1(C)[C@@H]2CC[C@H]1CC(OC(=O)C(CO)c1ccccc1)C2` (stereo not given in full), the Potency entry is “inactive”.
Regarding `Cc1cccc(NC(=O)C2CCCN(S(=O)(=O)c3ccc4c(c3)oc(=O)n4C)C2)c1` (stereo not given), the “activity change, negative = inhibition” value was inactive: 2.78%.
As to `COc1ccc2c3c1OC1CC(O)C=CC31CCN(C)C2` (stereo not given), the “activity change, negative = inhibition” value was inactive: -0.728%.
